# From PubChem BioAssay AID624417 (National Center for Advancing Translational Sciences (NCATS), 2012)
# In all, about 410,000 compounds went through this assay and about 6,400 (1.6%) were called active. The shares of active, inactive and inconclusive entries below differ from those in the screen. Calls follow the shape of the dose curve; as a rule, active = well fitted inhibition curve with a large enough effect; inconclusive = small, poorly fitted or top-dose-only effect; inactive = no such curve, though single readings can be large or run the other way. Potencies of inconclusive entries are left out as doubtful fits.
# Molecular target: Glucagon-like peptide 1 receptor (Homo sapiens) (UniProt P43220)
# Experiment: qHTS of GLP-1 Receptor Inverse Agonists (Inhibition Mode); also: nearly all actives have a fitted effect of over 55% in size
# Conditions: HEK293 GLP-1R CRE-luciferase, luminescence, 24 h, GLP-1R form is constitutively active; activity change, negative = inhibition: at 38.3 µM (top of the series) unless noted
# Summary of the method: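 Using stably transfected HEK293 (constitutively active GLP-1R, cAMP-luciferase reporter), compounds were incubated 24 hr and luciferase measured by luminescence.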
# % is scaled to controls: 0 for no effect and ±100 for the full control effect; potency is read from the fitted curve at half-maximal effect; tags tell the direction and shape of the fitted curve.
# UniProt P43220, sequence (P43220 whole entry, looked up): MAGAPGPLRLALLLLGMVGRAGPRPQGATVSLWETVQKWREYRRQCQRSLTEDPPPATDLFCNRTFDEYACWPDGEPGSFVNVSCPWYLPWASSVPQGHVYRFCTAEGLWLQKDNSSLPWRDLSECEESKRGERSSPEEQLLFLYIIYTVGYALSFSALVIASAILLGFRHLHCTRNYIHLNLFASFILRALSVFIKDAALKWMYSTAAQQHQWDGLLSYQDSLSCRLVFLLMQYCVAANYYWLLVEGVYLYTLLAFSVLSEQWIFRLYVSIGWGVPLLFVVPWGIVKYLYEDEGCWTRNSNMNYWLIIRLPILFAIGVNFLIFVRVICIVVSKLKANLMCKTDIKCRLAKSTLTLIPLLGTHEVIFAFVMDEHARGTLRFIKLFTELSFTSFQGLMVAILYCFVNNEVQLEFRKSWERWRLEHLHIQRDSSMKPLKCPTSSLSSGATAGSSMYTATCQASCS
Compound,"activity change, negative = inhibition",Potency
Nc1nonc1OCCN1CCN(c2ccc([N+](=O)[O-])c3cccnc23)CC1,inactive: 1.44%,
Cc1cc(C)n(CC(=O)NC2CCCN(Cc3ccc(Cl)cc3)C2)n1 (stereo not drawn),,"inconclusive [inhibitor, full curve, poor fit]"
C/C(CC(=O)Nc1ccc(Cl)cc1Cl)=N\NC(=O)c1ccncc1,inactive: -18.9%,
CCCCc1c(-c2ccccc2OC)ncn1CCc1ccccc1OC,,"inconclusive [inhibitor, single point]"
COc1ccccc1NC(=O)CN1C(=O)COc2ccc(S(=O)(=O)N3CCCCCC3)cc21,,"inconclusive [inhibitor, partial curve, poor fit]"
COc1ccc2c(c1)c1c(c(=O)n(-c3ccccc3C)c(=O)n1Cc1cccc(C(F)(F)F)c1)n2C,inactive: -1.17%,
Cc1ccc(OCc2nc(-c3ccccc3)no2)c(C)c1,,"inconclusive [inhibitor, single point]"
O=C(NCc1cccs1)C1CC(c2ccc(Cl)cc2)=NO1 (stereo not drawn),,"inconclusive [inhibitor, partial curve]"
O=C(c1cc(-c2ccccc2)nc2ccccc12)N1N=C(C(F)F)CC1(O)C(F)F (stereo not drawn),inactive: -12%,
Cc1cc(C)c(O)c(-c2cc(C(=O)NCCc3ccc(S(N)(=O)=O)cc3)[nH]n2)c1,,"inconclusive [inhibitor, single point]"
CCCN1CCC(C(=O)NC(c2ccc(Cl)cc2)c2ccsc2)CC1 (stereo not drawn),,"inconclusive [inhibitor, partial curve, poor fit]"
O=C(CSc1nnc(-c2ccc(O)cc2)o1)N1CCOCC1,inactive: -5.69%,
COC(=O)CCSCC(=O)N1N=C(c2ccc(Br)cc2)CC1c1cccc(OC)c1OC (stereo not drawn),,"inconclusive [inhibitor, single point]"
COc1cccc(CNC(=O)CN2CCC(c3nc4ccc(C)cc4[nH]3)CC2)c1,,"inconclusive [inhibitor, full curve, poor fit]"
CCN(c1cccc(C)c1)S(=O)(=O)c1cc(Br)cc2c1N(C(C)=O)C(C)C2 (stereo not drawn),,"inconclusive [inhibitor, single point]"
COc1ccc(NC(=O)c2c(C)oc3ccc(O)c(CN4CCC(C)CC4)c23)cc1Cl,,"inconclusive [inhibitor, single point]"
Cc1cccc(OCC(=O)Nc2ccccc2C(=O)OCc2cc(=O)n3ccsc3n2)c1,inactive: -5.15%,
COc1ccc(-c2nnn(-c3cc(Cl)cc(Cl)c3)c2N)cc1,,"inconclusive [inhibitor, single point]"
O=C(Nc1ccc(Cc2ccncc2)cc1)c1ccc([N+](=O)[O-])o1,inactive: 224%,
C=C(C)c1ccc(C(C)(C)NC(=O)NCc2ccco2)cc1,,"inconclusive [inhibitor, partial curve, poor fit]"
CN(C(=S)Nc1ccccc1F)C1(c2ccccc2Cl)CCCCC1=O (stereo not drawn),inactive: 0%,
CCCCc1cc2c(s1)CCCC/C2=N/O,,"inconclusive [inhibitor, partial curve, poor fit]"

Compound,"activity change, negative = inhibition",Potency
CN1CCN(C(=O)Cn2c(=O)oc3cc(S(=O)(=O)NCc4ccccc4)ccc32)CC1,,"inconclusive [inhibitor, single point]"
Cc1ccccc1CN1CCN(Cc2ccccc2C(F)(F)F)CC1,,"inconclusive [inhibitor, single point]"
COc1ccc2[nH]c3c(c2c1)CCNC3C1CC=C(C)CC1 (stereo not drawn),,"inconclusive [inhibitor, full curve]"
COCCn1c(C)cc(C(=O)COC(=O)c2ccccc2Br)c1C,,"inconclusive [inhibitor, full curve, poor fit]"
Cc1ccc2oc(-c3cccc(N)c3)nc2c1,,"inconclusive [inhibitor, partial curve]"
COc1ccccc1C(=O)NC(C)c1ccccc1 (stereo not drawn),inactive: -18%,
COc1cccc(C2=CC(c3cc(OC)ccc3OC)n3nnnc3N2)c1 (stereo not drawn),,"inconclusive [inhibitor, partial curve, poor fit]"
O=C(O)COCC(=O)N1CCN(C2c3ccccc3-c3ccccc32)CC1,,"inconclusive [inhibitor, single point]"
Cc1ccc(-n2ncc(C(=O)N3CCN(c4cc(Cl)ccc4C)CC3)c2C2CCN(C(=O)OC(C)(C)C)CC2)cc1,inactive: 8.18%,
COCOc1cccc(CN2CCC(C)(Oc3ccc(SC)cc3)C2)c1 (stereo not drawn),,"inconclusive [inhibitor, single point]"
CC1NC(=S)N(C2CCCCC2)C1=O (stereo not drawn),inactive: 6.65%,
O=c1[nH]nc(SCCS(=O)(=O)c2ccc(F)cc2)n1-c1ccccc1C(F)(F)F,,"inconclusive [inhibitor, single point]"
COC(=O)c1ccc(Cl)cc1NC(=O)Nc1nnc(N2CCCC2)s1,inactive: 8.66%,
Cc1ccn2cc(C34CC5CC(CC(C5)C3)C4)nc2c1,,"inconclusive [inhibitor, partial curve, poor fit]"
Cc1c(Cl)ccc2sc(N3CCN(C(=O)C4=COCCO4)CC3)nc12,inactive: 2.34%,
CCN(CC)C(=O)CN1CCC(c2nc3cc(C)c(C)cc3[nH]2)CC1,,"inconclusive [inhibitor, partial curve, poor fit]"
CCC(=O)NCCn1ccc2ccccc21,inactive: 4.17%,
Cc1ccc(NC(=O)c2ccc(F)cc2)cc1S(=O)(=O)N1CCCCCC1,,"inconclusive [inhibitor, partial curve, poor fit]"
C=Cc1cccc(NC(=O)c2ccc(NC(=O)c3ccco3)cc2)c1,,"inconclusive [inhibitor, single point]"
CCOc1ccc(CNC(=O)c2ccc3c(c2)c(C)c(C)n3Cc2ccccc2)cc1OC,,"inconclusive [inhibitor, partial curve, poor fit]"
Cc1ccc(C)c(NC(=O)CN(C)C(=O)c2cc(-c3cccs3)nn2-c2ccccc2)c1,,"inconclusive [inhibitor, partial curve, poor fit]"
